Assay results as given in PubChem BioAssay AID1346428 (National Center for Advancing Translational Sciences (NCATS), 2018).
Among all 48,000 compounds or so, about 1,200 (2.5%) were called active. About 2% were inconclusive and are not listed.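 How the source made its calls: active means activation of at least 60% and not above a set upper limit (about 1 call in 100 departs from these limits); inconclusive means activation of 40% to 60%, or above that upper limit; inactive means activation under 40%.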 This is one part of the list.

molecular target: Probable G-protein coupled receptor 32 (Homo sapiens) (UniProt O75388); assay: qHTS for Agonists of Human Resolvin D1 Receptor DRV1; conditions: CHO-K1 GPR32 beta-arrestin PathHunter luminescence, 90 min; at 76.9 µM; stronger effect = higher value; zero percent set by DMSO-only wells; further: 0% is about no effect
Method in brief: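 CHO-K1 cells stably expressing ProLink-tagged GPR32 and Enzyme Activator-tagged beta-arrestin were seeded at 2,500 cells/well overnight, exposed to compounds for 90 min at 37 °C, then read by beta-Gal complementation chemiluminescence after 1 h detection reagent.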

Sequence of UniProt O75388 (O75388 whole entry, looked up): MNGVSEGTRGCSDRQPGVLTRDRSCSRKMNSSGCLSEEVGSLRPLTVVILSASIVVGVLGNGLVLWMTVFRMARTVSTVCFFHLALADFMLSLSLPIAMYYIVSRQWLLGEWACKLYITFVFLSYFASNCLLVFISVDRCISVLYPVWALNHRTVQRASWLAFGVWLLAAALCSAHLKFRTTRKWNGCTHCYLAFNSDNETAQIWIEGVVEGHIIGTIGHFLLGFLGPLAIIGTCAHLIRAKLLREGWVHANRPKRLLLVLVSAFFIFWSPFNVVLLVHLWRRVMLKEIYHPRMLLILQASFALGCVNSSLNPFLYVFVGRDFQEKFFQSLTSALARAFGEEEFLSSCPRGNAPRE

activation, active:
Cc1ccc(CN2CCCn3nc(C(=O)NCCc4ccc(Cl)cc4)cc3C2=O)cc1 115%
Cc1cccc(C(=O)NCCc2sc(-c3ccccc3)nc2C)c1 77.7%

activation, inactive:
Cc1ccc(C)c(Cn2nnc(C(=O)NCc3ccc(Cl)cc3Cl)c2N)c1 -4.7%
CCc1ccc(NC(=O)c2ccc(F)c(S(=O)(=O)N3CCC(C)CC3)c2)cc1 -11.3%
CC1CCN(CC[C@H]2CCCN2S(=O)(=O)c2cccc(O)c2)CC1 1.4%
Cn1nccc1C(=O)NCc1ccc2c(c1)CCN2C(=O)c1ccc(F)cc1 -47.5%
Cc1ccc(C(=O)N2CCC(c3c[nH]c4ccccc34)(c3c[nH]c4ccccc34)CC2)cc1 -20.2%
COc1ccccc1Nc1cc(C(=O)NCCCN(C)c2ccccc2)c2ccccc2n1 -14.1%
COc1cc(Cl)ccc1Nc1ncc(C(=O)N2CCN(c3ccccc3OC)CC2)c2ccccc12 -6.83%
COc1ccc(OC)c(-c2cc(C(=O)Nc3cccc(Cl)c3C)no2)c1 -3.37%
COc1cccc(CNC(=O)c2ccc(Cn3c(SCc4ccccc4)nc4cccnc43)cc2)c1 -17.7%
CCC(=O)N1c2ccc(S(=O)(=O)NCc3cccc(OC)c3)cc2CC1C (centres undefined) 45.4%
Cc1ccc(S(=O)(=O)c2nc(-c3ccco3)oc2SC(C)c2ccccc2)cc1 (centres undefined) -31.6%
O=C(CSc1nc(-c2ccccc2)nc2c1CCCC2)c1ccc(F)cc1 18.8%
Cc1nc2ccccc2n1CC(O)COc1ccc(C(=O)O)cc1 (centres undefined) 30.5%
COc1cc(NC(=O)CCc2c(C)nc3nc(-c4cc(OC)cc(OC)c4)nn3c2C)cc(OC)c1 0.906%
CCCCN(CC)CCNC(=O)c1cc2c(-c3ccc(Cl)cc3)nn(C)c2s1 26.3%
CC1CCCN(S(=O)(=O)c2ccc(NC(=O)c3nc(SC(C)C)ncc3Cl)cc2)C1 (centres undefined) -11.6%
Cc1ccc(NS(=O)(=O)c2ccc(NC(=O)N3CCCC3)cc2)cc1C -1.04%
Cc1ccc(-n2c3nc(=O)n(C)c(=O)c-3cc3c(Cl)cccc32)c(C)c1 -17.2%
CCn1c(C(=O)N2CCC(C(=O)NCCc3ccccc3)CC2)cc2sccc21 -6.53%
CCC(Sc1nnc(-c2ccc(OC)cc2)c(-c2ccc(OC)cc2)n1)C(=O)NC1CCCCC1 (centres undefined) -11.5%
COc1ccccc1/C=C/c1nc(C#N)c(N2CCCCCC2)o1 -13.2%
CCCCN(Cc1ccccc1)C(=O)c1oc(=O)c2ccccc2c1-c1ccc(C)cc1 -2.7%
COc1ccc(-n2nc(C(=O)N3CCN(c4ccccc4OC)CC3)c3c4ccccc4n(C)c3c2=O)cc1 -0.651%
CCOC(=O)c1ccc(NC(=O)C(CC)Sc2nc3ncccc3[nH]2)cc1 (centres undefined) -7.76%
COc1ccc(N2CC(NC(=O)c3ccc(S(=O)(=O)N4CCCC4)cc3)CC2=O)cc1 (centres undefined) -11%
COc1cccc(N2CC(NC(=O)/C=C\c3ccc4c(c3)OCO4)CC2=O)c1 (centres undefined) -1.14%
COc1ccccc1CNC(=O)CCn1c(=O)c2ccccc2n(CC(=O)Nc2ccc(C)cc2C)c1=O -11.1%
Cc1cc(OC(=O)c2cc(-c3ccc4c(c3)OCCO4)on2)ccc1Cl -34.1%
COc1ccc2c(c1)-c1nc(NC(=O)c3cc(Cl)ccc3OC)sc1CC2 -13.6%
CN1c2ccccc2-c2nc(SCC(=O)Nc3ccccc3C(F)(F)F)ncc2S1(=O)=O -12.6%
CCc1nn2c(=O)c(S(=O)(=O)Nc3ccc(OC)c(Cl)c3)c(C)nc2s1 -8.57%
O=C(NCC(c1cccnc1)N1CCN(Cc2ccccc2)CC1)C(=O)Nc1ccc(Cl)cc1 (centres undefined) 20.4%
CCN(Cc1ccccc1)C(=O)Cn1c(=O)n(Cc2ccccc2)c(=O)c2c1c1cc(OC)ccc1n2C -8.25%
Cc1ccc2c(=O)cc(CSc3ccccc3)[nH]c2c1C -6.79%
Cc1ccc(CSCC(=O)N2CCN(c3ccc(F)cc3)CC2)cc1 -22.1%
CC(C)c1ccc(S(=O)(=O)c2nnn3c2nc(NC2CCCC2)c2sccc23)cc1 -11.3%
Cc1nc(CC(=O)Nc2cccc(C)c2C)cs1 -10.5%
CC(=O)c1cccc(S(=O)(=O)NCCc2csc3nc(-c4ccc(F)cc4)nn23)c1 -6.74%
Cc1cccc(N(CC(=O)Nc2ccc(Br)cc2)S(C)(=O)=O)c1C 23.8%
COc1ccc(OC)c(NC(=O)c2c(NCc3ccc(C)o3)sc3c2CCC(C)C3)c1 (centres undefined) -8.94%
COc1ccc(C(=O)NCc2ccc3c(c2)CCN3C(=O)c2ccncc2)cc1 -14.1%
CCOC(=O)c1sc2ccccc2c1S(=O)(=O)Nc1cccc(C(F)(F)F)c1 -10.1%
C=CCc1cccc2cc(C(=O)Nc3cccc(Cl)c3)c(=O)oc12 -2.93%
Cc1coc2c1c(C)cc1oc(=O)cc(C)c12 7.41%
CC(C)OCCCNC(=O)c1ccc2c(=O)n(CCc3ccccc3)c(=O)[nH]c2c1 12.1%
COc1ccc(-c2nnc(SCC(=O)Oc3c(C)cccc3C)o2)cc1OC -15.6%
CCCCN(C)C(=O)C(Cc1ccccc1)NS(=O)(=O)c1ccc2c(c1)c(=O)n(C)c(=O)n2C (centres undefined) -11%
Cc1ccc(-c2c(C(=O)NCc3ccccc3)oc(=O)c3ccccc23)cc1 -8.36%
CCC(C)NC(=O)c1ccc(-n2c(-c3ccccc3)cc3c2CCCC3)cc1 (centres undefined) -23.6%
Cc1ccccc1CNC(=O)c1ccc(-c2nc(CS(=O)(=O)c3ccccc3)c(C)o2)cc1 -2.05%
COc1ccc(C)cc1NC(=O)CN(c1cc(C(F)(F)F)ccc1Cl)S(C)(=O)=O -10.5%
CCc1cccc(C)c1NC(=O)c1cc(C)nc2c1c(C)nn2-c1cccc(Cl)c1C -4.49%
